The supplement of paper PMC4723716
± gives the uncertainty stated by the source. Whole data set: some 9,900 compounds, median “viability index relative to DMSO control” near 1, cut for the lowest 2% near 0.85. This is one part of the list.

Tested on: Plasmodium falciparum NF54 stage V gametocytes
Assay: viability index relative to DMSO control (fraction); higher = less gametocyte killing
Conditions: 2.5 µM, library set: Broad Institute DOS, incubation time: 72 h
Protocol: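 Broad DOS informer set and blood-stage-active DOS compounds screened in duplicate at 2.5 µM against P. falciparum NF54 stage V gametocytes with the serum-free one-step SaLSSA (1536-well): 72 h at 37 °C under low oxygen, then saponin lysis and MitoTracker Red CMXRos staining, with high-content imaging. Viability index = viable-object count divided by the plate mean of DMSO wells (0 = killed, about 1 = inactive).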

SMILES	viability index
CCCN1[C@H](CO)[C@H](c2ccc(C#CC(C)C)cc2)[C@@H]1CN(C)S(C)(=O)=O	0.996 ± 0.086
C[C@@H]1CN([C@@H](C)CO)C(=O)c2cccc(NC(=O)Nc3ccc(C(F)(F)F)cc3)c2O[C@H]1CN(C)S(=O)(=O)c1cn(C)cn1	0.952 ± 0.097
O=C(CN1CCOCC1)N[C@H]1CC[C@H](CCn2cc(C3CC3)nn2)O[C@@H]1CO	1.16 ± 0.021
C[C@H](CO)N1C[C@H](C)[C@@H](CN(C)C(=O)[C@@H](Cc2ccccc2)N(C)C)OCc2ccccc2-c2ccccc2C1=O	0.997 ± 0.086
COc1cccc(-c2ccc3c(c2)[C@@H]2[C@@H](CCN2C(=O)c2ccccn2)[C@@H](CO)N3)c1	1.01 ± 0.028
CN1C(=O)c2cc(NC(=O)Nc3ccc(Cl)cc3)ccc2OC[C@H]2O[C@H](CC(=O)NCCN3CCCCC3)CC[C@@H]21	0.941 ± 0.046
CN(C)C(=O)c1cccc(-c2ccc([C@H]3[C@@H](CO)N4CCCCN(CC5CCOCC5)C[C@H]34)cc2)c1	1.07 ± 0.014
C[C@@H]1CN([C@@H](C)CO)S(=O)(=O)c2ccc(C#Cc3ccccc3F)cc2O[C@H]1CN(C)C(=O)Cc1cccnc1	0.947 ± 0.016
C[C@@H]1CN([C@H](C)CO)C(=O)c2cc(NS(=O)(=O)c3cccs3)ccc2O[C@@H](C)CCCCO[C@@H]1CN(C)Cc1ccc(Cl)c(Cl)c1	0.896 ± 0.099
CS(=O)(=O)N1CC(=O)N2[C@H](C1)[C@H](c1ccc(C#Cc3ccc(F)cc3)cc1)[C@@H]2CO	1.04 ± 0.027
COCC(=O)Nc1ccc2c(c1)C(=O)N(C)C[C@H](OC)[C@@H](C)CN(CCc1ccccc1)[C@H](C)CO2	0.978 ± 0.01
O=C(C[C@@H]1CC[C@H]2NC[C@@H](O)COC[C@@H]2O1)Nc1ccc(-c2ccccc2)cc1	0.826 ± 0.077
CO[C@@H]1CN(C)C(=O)c2ccc(NS(=O)(=O)c3ccc(C)cc3)cc2OC[C@@H](C)N(C)C[C@H]1C	1.09 ± 0.02
C[C@@H](NC(=O)C[C@H]1C[C@H]2c3cc(NS(=O)(=O)c4ccc(F)cc4)ccc3O[C@H]2[C@H](CO)O1)c1ccccc1	1.077 ± 0.01
O=C(Nc1ccc(F)cc1)N1CC(=O)N2[C@H](CO)[C@@H](c3ccc(-c4cccc(F)c4)cc3)[C@H]2C1	1.05 ± 0.064
O=C(O)[C@H]1[C@H](CO)[C@H]2Cn3c(cccc3=O)[C@H]2N1C(=O)NC1CCCC1	0.9945 ± 0.0021
COCC(=O)Nc1ccc2c(c1)C(=O)N(C)[C@@H]1CC[C@@H](CC(=O)N3CCc4ccccc4C3)O[C@@H]1CO2	1.03 ± 0.051
C[C@H](CO)N1C[C@H](C)[C@H](CN(C)C(=O)Nc2ccc(C(F)(F)F)cc2)Oc2ncc(C3=CCCC3)cc2C1=O	0.9836 ± 0.0045
CCN(C[C@H]1[C@H](c2ccc(-c3cccnc3)cc2)[C@H](CO)N1C(C)=O)C(C)=O	1.02 ± 0.041
COc1cccc(C(=O)N2C[C@@H]3[C@H](c4ccccc42)[C@H](CO)N3C(=O)c2cccc(F)c2)c1	1.07 ± 0.072
Cc1noc(C)c1S(=O)(=O)Nc1ccc2c(c1)C(=O)N([C@H](C)CO)C[C@H](C)[C@@H](CN(C)Cc1ccc(C(=O)O)cc1)OCCCC[C@H](C)O2	1.04 ± 0.037
COc1ccc2c3c([nH]c2c1)[C@H](CO)N(C[C@]31CCN(CC1)C(=O)c1ccncc1)C(=O)C1CC1	0.972 ± 0.024

SMILES	viability index
COCC(=O)N1[C@H](C#N)[C@H](c2ccccc2C2=CCCC2)[C@@H]1CO	1.05 ± 0.065
CC(C)NC(=O)Nc1ccc2c(c1)C(=O)N(C)[C@@H]1CC[C@@H](CC(=O)NCc3ccc(F)cc3)O[C@H]1CO2	1.05 ± 0.0075
CO[C@@H]1CN(C)C(=O)c2ccc(NC(=O)Nc3ccccc3Cl)cc2OC[C@H](C)NC[C@@H]1C	1 ± 0.032
C[C@@H]1CN([C@@H](C)CO)C(=O)c2cccc(NC(=O)c3cnccn3)c2O[C@@H]1CN(C)C(=O)NC1CCCCC1	1.04 ± 0.085
O=C(c1ccc2c(c1)OCO2)N1C[C@@H]2N[C@H](C1)[C@H]2c1ccc(/C=C/c2ccccc2)cc1	1.05 ± 0.017
CCN1[C@@H]2c3ccc(-c4ccccc4OC)c(=O)n3C[C@H]1[C@H](CO)[C@H]2C(=O)NCc1ccccn1	1.018 ± 0.0036
OC[C@@H]1[C@H](c2ccc(C#CC3(O)CCCC3)cc2)[C@@H]2CN(Cc3cncnc3)CCCCN12	1.07 ± 0.035
C[C@@H]1CN([C@@H](C)CO)C(=O)CCCn2nncc2CO[C@H]1CN(C)CC1CCCCC1	0.986 ± 0.07
CN(C[C@H]1[C@@H](c2ccc(C3=CCCC3)cc2)[C@@H](CO)N1CCC(F)(F)F)S(C)(=O)=O	1.02 ± 0.046
CN1C(=O)c2cc(NC(=O)Nc3ccc(Cl)cc3)ccc2OC[C@@H]2O[C@@H](CC(=O)NCCN3CCCCC3)CC[C@H]21	0.838 ± 0.04
COc1ccc(S(=O)(=O)Nc2ccc3c(c2)C(=O)N([C@H](C)CO)C[C@@H](C)[C@H](CN(C)Cc2ccc(C(F)(F)F)cc2)OCCCC[C@H](C)O3)cc1	0.951 ± 0.019
COc1ccc2c3c([C@H](CO)N(CC4CC4)C[C@]33CCN(CC3)C(=O)NC3CCCC3)n(C)c2c1	0.955 ± 0.05
COc1ccc(CN(C)C[C@@H]2OCCCC[C@H](C)Oc3ccc(NC(=O)C4CCCCC4)cc3C(=O)N([C@H](C)CO)C[C@H]2C)cc1	1.03 ± 0.037
COc1ccccc1S(=O)(=O)N1CC[C@@H]2[C@H]1c1cc(-c3cccc(C#N)c3)ccc1N(C)[C@H]2CO	0.876 ± 0.046
CCCNC(=O)C[C@H]1CC[C@@H]2[C@@H](COc3ccc(NC(=O)CC)cc3C(=O)N2C)O1	1.05 ± 0.03
CO[C@@H]1CN(C)C(=O)c2cc(NC(=O)C3CCCCC3)ccc2OC[C@@H](C)N(Cc2cccnc2)C[C@@H]1C	1.11 ± 0.041
COc1ccccc1NC(=O)N1C[C@H](O)COC[C@@H]2O[C@@H](CC(=O)N3CCC(Cc4ccccc4)CC3)CC[C@H]21	1.02 ± 0.049
C[C@H]1CN([C@@H](C)CO)C(=O)c2cc(-c3cccc(C#N)c3)cnc2O[C@@H]1CN(C)C(=O)C1CCOCC1	1.04 ± 0.025
CO[C@H]1CN(C)C(=O)c2cccc(C#N)c2OCC[C@@H]2CC[C@@H](OC)[C@@H](CN(C)C(=O)[C@H]1C)O2	1.063 ± 0.0072
CCS(=O)(=O)Nc1ccc2c(c1)C(=O)N(C)[C@H]1CC[C@@H](CC(=O)NCc3ccc(OC)cc3)O[C@H]1CO2	1.02 ± 0.059
COc1cccc(NC(=O)Nc2ccc3c(c2)C(=O)N(C)C[C@@H](OC)[C@@H](C)CN(CC2CC2)[C@@H](C)CO3)c1	0.986 ± 0.13
